Source: the supplement of paper PMC3334620
Whole data set: some 33,000 sequences, median “E-score (-0.5 to 0.5)” near -0.054, cut for the highest 2% near 0.39. This is one part of the list.

Biological target: Ylr278c (UniProt Q05854)
Assay: PBM E-score (8-mer binding enrichment) (E-score (-0.5 to 0.5)); higher = stronger / more preferred TF binding; most listed sequences are background and not binding sites
Details: protein concentration: 200 nM; construct: GST-DNA-binding domain
Outline: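 Each ungapped eight-base word and its reverse complement, pooled, received an E-score from the Universal PBM Analysis Suite. Underlying scans, normalised with masliner, recorded fluorescent anti-GST bound to GST-tagged yeast transcription factors. These were applied at about 100-200 nM to universal all-10-mer Agilent arrays double-stranded by primer extension.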

Sequence | PBM E-score
CTTGTGAA | -0.156
AACGTCAA | -0.163
AATATGGT | 0.105
ATAGGACC | 0.048
AAACGCCA | 0.0115
CGTAGTCC | 0.1
AAGGTGCA | -0.166
GATGGGCA | -0.183
CAAGTCAA | -0.222
ACAGTCCA | -0.198
TAATGCTA | -0.0119
GGTTCCTA | -0.108
ACAAGAGG | -0.0463
CAACCATG | -0.0437
AGCTTGAG | 0.105
CCGCGGCA | 0.381
GTGGCTCA | -0.167
ATCTCCAG | -0.0917
CGCTTCCC | 0.153
AAAATCTG | -0.0672
TAGTAGCA | -0.0836
AAAGCACC | -0.114
ATCTGTGA | 0.00308
CGTATGAG | -0.039
AGAGTTCG | -0.0185

Sequence | PBM E-score
GTGACGTA | -0.142
AGTTCCAG | -0.0676
CGTAAGGA | -0.265
ATCGATGA | -0.164
CCTCTCCC | -0.153
ACCTACGA | -0.23
CCAGTCGC | 0.0422
AGTGCCGC | 0.0939
CAGGCCTA | -0.144
CCTCAGAA | -0.263
CACTGATA | -0.288
GATGGGAA | -0.166
CGCCCCGA | 0.35
AGGTTAAG | -0.259
CCCCAACA | -0.0695
CCTGAAGG | -0.206
GCACAAAC | -0.00707
CGGTAACG | 0.126
GGCGAGCC | 0.0265
CGGCCTAA | 0.174
CTAGCGAA | -0.291
AGATGAAA | -0.0311
CATCGATC | -0.111
CAGACGCA | -0.0578
ACAAGTAC | -0.0289

Sequence | PBM E-score
CACAGCAC | -0.118
GGCTACAC | -0.161
AATTTTCG | 0.126
AGGACAAG | -0.207
GGATCAAA | 0.0369
AAAGACGA | -0.147
GGATCGCC | 0.107
GACAGGTA | -0.0451
AGGGAGAG | -0.256
ATGTTTCA | -0.153
GAAGGGAC | -0.175
AAGACCAT | -0.112
CCGGGACC | 0.408
CGTATATA | -0.111
CTCACAAG | -0.207
GAGATCAA | 0.0546
AAGCTGAT | -0.0508
CCTATAGA | -0.189
CCCCGAAG | 0.3
AGTTCTCC | 0.251
CTAAATCC | 0.309
GCTTGTAA | -0.171
ATCCATGG | 0.0118
CGGGATTC | 0.392
AACGCTAA | -0.393

Sequence | PBM E-score
CTTTGGTC | -0.0362
AGGTAGGC | -0.111
AGCACTAA | -0.0957
CACGTCGA | -0.141
CATTGAGG | -0.117
CCTTGGTA | 0.0261
GATATACA | -0.0016
AGAGTCCG | 0.347
ACCTTGTC | -0.192
AGAGTTCC | 0.2
ACTCCGTG | 0.449
AAACTGGG | -0.0511
CTATGCCC | -0.1
ATTACGCA | 0.0188
CGAGGTCC | 0.333
AAACCTCT | -0.0199
ATTCCATG | -0.00616
GACCATCC | -0.0475
CCGATAAA | 0.385
CACAGACA | -0.139
CTCCTAAG | -0.158
GGGTGATA | -0.0273
AGGGGCCG | 0.0855
ATGCATTG | -0.231
CGCGATAA | 0.126

Sequence | PBM E-score
CAGATGGA | 0.113
ACTACACA | 0.0266
AACAGGTC | -0.139
ATGAAAAC | 0.064
TGACAGAA | -0.22
ATGTCTGC | -0.0367
AACGACCC | 0.0589
GCACTATA | -0.161
TCGCGTCA | -0.0951
GTCCATTA | -0.178
CCCGGAGC | 0.452
CATCTCCG | 0.463
CCCACTCC | 0.199
AAGCCACA | -0.162
ATTCTTCC | 0.133
GCACACCA | -0.112
CCGCCATA | 0.256
GTTCGAAA | 0.0551
AAGTTTTA | -0.0254
ATAGGTTC | -0.0262
AACCCCCT | -0.374
CGTTATCA | -0.133
CTTATGAA | -0.135
TACAGTAA | -0.189
ATTACATG | 0.0663

Sequence | PBM E-score
ATGACGGG | 0.122
CATGGAAG | -0.0195
AAGCAATC | -0.0664
AAAGTAGC | -0.0669
ACTCTGTA | -0.175
GAGGTTGC | 0.0511
AGAACTCC | 0.276
GTGGGGTA | 0.202
ACTCGTTG | -0.245
TGTTCGAA | -0.136
AACATGAA | -0.202
GAAATCGA | 0.192
CCCTTCGA | 0.0176
AGAATCCT | -0.196
TAGTGTCA | -0.113
AGCTTCAA | -0.0837
TCCCGGAA | 0.44
AAGACAGC | -0.0488
ATTTTAAC | -0.0451
ATTCACCC | 0.076
CTCGTTTC | -0.0952
CGAGGCAC | -0.0591
CCGTAATA | 0.15
CGAGAGAA | -0.0446
GGAATTAC | 0.302

Sequence | PBM E-score
CGCTCTCA | -0.144
AATAGGAT | 0.106
TACGTTGA | -0.272
ATGAAATC | 0.0267
GGAGTACC | 0.167
ACACCCGA | 0.102
GCTGAACC | 0.00745
AAGATTCC | 0.074
CCCCCTAC | -0.226
CCAATGAA | -0.0266
CGTGTATC | 0.022
ACCACTGA | -0.281
ATATAGTC | 0.0315
GGAACCGA | 0.23
AGTATATG | -0.0862
CATTGACA | -0.185
CCCTCGTA | -0.0977
CGCCCGGC | 0.292
AGGGCGTG | 0.0333
CCAACGCG | 0.126
AACGCCAT | -0.0995
ATGACCAT | -0.071
CACGAAGG | -0.0763
CTGCATGA | -0.288
AACGACGT | -0.164

Sequence | PBM E-score
CCCGGCGA | 0.326
CCCCTAAC | -0.141
CATCACAG | -0.108
GCAAACGA | -0.14
ACGCGAGA | -0.171
CTATCTTC | 0.0122
GAGCAAAC | 0.0239
GAAGCGGA | 0.375
AGGACTAT | -0.152
AGAGAACA | -0.0886
ACATAGCC | 0.106
ATTCCCGC | 0.348
CCCGCTGA | 0.115
AGGAGCCG | -0.0181
CCCTATTC | 0.19
AGGCAGAG | -0.316
AACTATTC | 0.0951
ACTCCACC | -0.0671
GGTGGTCA | 0.0226
TGTGGAAA | -0.0101
ATCTTTTC | -0.0178
CACCTCGC | 0.0879
AGTTATTG | -0.0584
CAAGCGTA | -0.415
AAGCCCTA | -0.116

Sequence | PBM E-score
CTTAACAC | -0.212
CCCTGCAA | -0.106
ACGGGAGT | 0.223
CACATTCC | 0.128
CCCATAGG | -0.0984
GTATCAAA | -0.0672
CCTTGGCA | -0.186
GTTATCGA | 0.113
ACTTAAAA | 0.0514
ATGCGCGC | 0.258
ACGGTTGC | -0.128
AAGGGGCC | -0.0231
CTGGCCAA | -0.0724
CGGCTATC | 0.312
AGGTAGAG | -0.168
CGGCAGTA | 0.22
ACAGCGAC | -0.184
ATTCCCGG | 0.411
TTAAGAAA | -0.224
AAAAATAA | -0.035
CACGTGGG | -0.147
AGAAAATA | -0.0326
CCCGGTCC | 0.336
GCTCAAGC | -0.0197
AAGCTTGC | -0.176

Sequence | PBM E-score
GGACGCTA | -0.163
CCGTAGAA | -0.00631
ACCGCGAC | 0.0815
GGCCCATA | -0.0549
CTAGATAG | -0.28
ATACGGAA | 0.345
ACCTGCCT | -0.0457
CCGATCGA | 0.226
AGTCACGC | -0.062
TCCCAGGA | -0.166
GATAGAAA | 0.00508
AAATCTTC | 0.0924
GAATTCCA | 0.194
ACTTGGGC | -0.0315
CCTAAGAG | -0.167
AGAGAACC | -0.0147
TGGCCCCA | -0.13
ATCTTGCA | -0.00704
CCGGACAC | 0.371
GAAGCACC | -0.0183
CCGTGCAG | 0.181
GACTACTC | 0.0709
ACGTGTAC | -0.218
CTCGCCGA | 0.248
AGTATAAT | 0.114

Sequence | PBM E-score
ATCGGATC | 0.33
AGGCGTTA | -0.108
CAATCCAA | -0.164
CAAAGATA | -0.143
TACTACCA | -0.216
CGTCCAGA | -0.137
GCATATCC | 0.0103
CGAATTCG | 0.211
GAACGCGA | -0.0235
AGAGCAGA | -0.198
ATATGTAC | 0.0645
CGCGCACC | 0.136
ACCGTATA | -0.206
AGACGGAT | 0.176
ATAGAAAA | -0.142
AAGCCGCT | 0.182
CAGAGGCA | -0.153
AGATACTG | -0.153
ACTCTCAC | -0.113
CATAATAA | -0.192
AATTGCGT | 0.0881
CCTGAATA | -0.0137
CACACAGC | -0.139
AATATTGC | 0.0838
AATGACGA | -0.117

Sequence | PBM E-score
CCTTGTCA | -0.243
AGCGCTCA | -0.101
AAATGTGA | -0.146
ACACGGTC | -0.0359
AGTTACAG | -0.0524
CACGATAG | -0.119
CCAAATGA | -0.0965
AGCTGGGC | -0.156
GCAGTCAA | -0.296
CGAACGCC | 0.306
AGCGGAAT | 0.385
GATCATTA | 0.0713
AAATTCGA | -0.0592
GGCATTGA | 0.16
AGATCGAC | -0.0891
TCCACACA | -0.0159
CTAAAAAG | -0.129
CAGTGTCG | -0.0738
GCCAAGGC | -0.19
AATATTTA | -0.00225
ATGCACTG | -0.236
ATTGGGAG | 0.00712
ACCAAAGA | -0.0945
TAGCAATA | -0.0362
CACTACTC | 0.0536

Sequence | PBM E-score
AGAACAAT | -0.0683
CGTATAGC | 0.161
GTCGTAAA | -0.0945
CCAACACC | 0.0617
AAAGTGTG | -0.164
AAAACTCC | 0.386
CGCCTTCA | -0.106
AACTGGAA | -0.107
CCGCTTGC | 0.217
CATCAATC | -0.16
AGTGTGTG | -0.269
GAGGAACC | -0.0197
AATATGGA | -0.209
ATACAGCC | -0.165
CACCCCGC | 0.28
ACGCACCT | -0.039
CTTGTGAC | -0.181
ATGGACCG | 0.0553
CCATACCA | -0.0905
CATGGTTC | 0.0217
ATTGAGGC | 0.0511
AGCTCAGA | -0.132
CAGGTTCC | 0.0369
GGTCTTAC | -0.0198
ACTTGGCC | -0.0011

Sequence | PBM E-score
GCGGTGTA | 0.132
AGATACCT | -0.0813
CTAGAAAG | -0.178
GGGCAATA | 0.107
ATATCAGC | -0.129
CGACTTTA | -0.0556
TGAATGAA | -0.101
AAAGACGG | 0.132
AACGTGTA | -0.182
CGGGCAGA | 0.252
CACTCAAA | -0.13
GAACAACA | -0.0739
AGAAGACG | -0.0192
CAGTGCGG | 0.257
CTTTCTAC | -0.141
CTAAACTC | 0.133
TCATTACA | -0.107
ATTACATA | -0.25
AGATTACT | -0.149
